The structures appear in SMILES notation.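 Five concentrations, 48 hours, 96-well plates. GI50 marks 50% less growth. TGI denotes the concentration required for complete inhibition of growth.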 Where only a bound is given, the exact number is not on record here.

In the test the test system is NCI-H322M lung. The experiment in a line: DTP human tumour cell line panel, 48 h.
As to `CN(NC(=O)CC(=O)NN(C)C(=S)c1ccccc1)C(=S)c1ccccc1`, the GI50 (commonly the concentration that inhibits growth by half) is > 100 µM and the TGI (in general, the concentration at which net growth stops) is > 100 µM. For the compound `Nc1ccc(C(=O)c2ccc(N)c(Br)c2)cc1Br`, the GI50 was 2.75 µM and the TGI was > 62.1 µM. Take `C=C(Cl)COC(=O)Nc1cccc(Cl)c1`: the TGI is > 100 µM.

For `CC1(C)CC(=O)C2=C(C1)NC(SCC(=O)O)=C(C#N)C2c1ccc(Br)cc1` (configuration not stated), the TGI was > 100 µM.

Regarding `O=C1C=C(N2CCCC2)C(=O)c2c(O)ccc(O)c21`, the TGI is > 10 µM. The same measure, in the same setting: next, `N/N=C(\CC1OC(=O)c2ccccc21)c1ccco1` (configuration not stated): > 100 µM. Same read-out and setting: next, `N#Cc1nc(C(F)(F)F)oc1N`: > 100 µM. Consider `O=C(c1cc(F)c(Cl)cc1Cl)N1N=C(c2ccccc2)CC1(O)c1ccccc1` (configuration not stated), for which the GI50 was 32.9 µM and the TGI was > 100 µM.

As for `N#Cc1ccccc1NC(=O)/C(=N\NC(=O)c1ccncc1)C(c1cnc2ccc([N+](=O)[O-])cc2n1)[N+](=O)[O-]` (configuration not stated), the TGI is > 100 µM.

Turning to `Cc1c(C#N)c2nnn(-c3ccc([N+](=O)[O-])cc3)c(=O)n2c1-c1ccccc1`, the TGI is 85.1 µM. This counts as double-digit micromolar.

Take `O=C(O)CS(=O)c1ccc2c3c(cccc13)C(=O)c1ccccc1-2` (configuration not stated): the TGI was > 100 µM. Consider `Cc1nc2c(=O)[nH]c(=O)n(C)c2[nH]c1=O`, for which the TGI is > 100 µM.

In the case of `NC(Cc1ccccc1)=NCC(=O)O`, the TGI was > 100 µM. As for `Cn1ccc2c(NCCN)c3c(c(NCCN)c21)C(=O)c1ccccc1C3=O`, the GI50 is 0.374 µM and the TGI worked out at 1.96 µM. For the compound `CN1[C@@H]2CCCC[C@H]2N(C)P1(=O)C(O)/C=C/c1ccccc1` (some centres not stated), the TGI was > 100 µM. On the same count and under the same terms, next, `Nc1nc2cc(CNc3ccc(C(=O)O)cc3)ccc2nc1-c1ccccc1`: > 100 µM; `CCOP(=O)(CC1CC(O)(CNc2cc(Cl)nc(N)n2)C1)OCC` (configuration not stated): > 100 µM. Take `CCN1C(=O)N(CC)C2C1NN=c1s/c(=C3\C(=O)N(CC(C)C)c4ccccc43)c(=O)n12` (configuration not stated): the GI50 is 1.65 µM and the TGI was > 100 µM.

`S=c1nc(Oc2ccc(Cl)c(Cl)c2)[nH]c(=S)[nH]1` returned a TGI of 74.3 µM. This lies in the double-digit micromolar range. `COc1cc(CCNC2=CC(=O)c3cccnc3C2=O)ccc1O`: the TGI was 3.42 µM. Compound `CC(=O)Nc1ccc(N2C(=O)CS(=O)(=O)C2c2cccc(Oc3ccccc3)c2)cc1` (configuration not stated) came in with a TGI of 36 µM. As to `c1ccc2c(c1)CCN(C1=NCCO1)C2`, the TGI was > 10 µM.

With `COc1ccc2nc(-c3ccccc3)cc(Nc3ccc(C(C)=O)cc3)c2c1`, the GI50 was 3.99 µM and the TGI was determined as 19 µM.

With `COc1ccc(C[C@H]2NC(=O)/C=C/C[C@@H]([C@H](C)[C@H]3O[C@@H]3c3ccccc3)OC(=O)[C@H](CC(C)C)OC(=O)[C@H](C)CNC2=O)cc1`, the TGI was > 7.91e-05 µM. As to `COC(=O)/C=C(C)/C=C/c1cc(C(C)=O)c(C)o1`, the TGI is > 100 µM. On to `C=C1C[C@@H]2C/C=C/C(=O)C/C(C)=C\C=C\C(=O)O[C@H](C=O)C/C(C)=C/[C@H](C1)O2`, for which the GI50 was 5.84 µM and the TGI was 19.6 µM. As to `O=c1c2ncn(C3CCCCO3)c2n(-c2ccccc2)c(=S)n1-c1ccccc1` (configuration not stated), the total growth inhibition concentration (TGI) is > 100 µM. In the case of `COc1cc(NC(=O)c2cc(OC)c3ccn(C)c3c2)cc2c1C[C@]1(C)CC[C@@H](O)C(C)(C)[C@H]1O2`, the GI50 is > 100 µM and the TGI is > 100 µM. `c1nc2cscc2c2cscc12`: the TGI is > 100 µM. On the same count and under the same terms, under `CC(C)(C)OC(=O)NC1CCCC1C(O)(C1=CCCC1)C1=CCCC1` (configuration not stated) stands > 100 µM; under `OCC(O)C(O)C(O)C1SC(c2ccccc2)=NN1c1ccccc1` (configuration not stated), > 100 µM.

Take `Nc1ccccc1/C=C\c1ccccc1`: the TGI is > 100 µM. On to `CCOC(=O)/C(=C\c1ccc(OCc2ccccc2)c(OC)c1)C(=O)c1ccccc1`, for which the TGI is > 100 µM.

In the case of `CC(=O)[CH-]C(=O)c1ccccc1.CC(=O)[CH-]C(=O)c1ccccc1.CC(=O)[CH-]C(=O)c1ccccc1.[Tl+3]`, the GI50 was 46.2 µM and the TGI was > 100 µM. Take `O=[N+]([O-])c1ccc(Sc2c3ccccc3nc3ccccc23)cc1`: the TGI is > 100 µM. Turning to `c1ccc2[nH]c(SSc3nc4ncncc4[nH]3)nc2c1`, the GI50 was 1.9 µM and the TGI is > 79.4 µM. As to `CC(=O)OC(CC(C)C)P1(=O)N(CC(C)(C)C)[C@@H]2CCCC[C@H]2N1CC(C)(C)C` (some centres not stated), the TGI is 25.7 µM. That is a double-digit micromolar value. Turning to `Cn1nc(-c2ccccc2)c(N=[N+]=[N-])cc1=O`, the TGI is > 100 µM. Still for that read-out and setting: under `N#CN=C1c2ccccc2C(=NC#N)c2cc(CO)ccc21` stands > 100 µM; under `COC(=O)c1ccc(CCC2=CC(=O)C(Br)=CC2=O)cc1`, > 73 µM; under `NC(CCl)=NC1CN2CCC1CC2` (configuration not stated), > 100 µM. Regarding `CC(/C=N/N(C)C1=NCCCCN1)=N/N(C)C1=NCCCCN1`, the TGI is > 100 µM.

Regarding `N#CC(c1nc2ccccc2s1)c1nc(Cl)ncc1Br` (configuration not stated), the TGI is > 100 µM. In the case of `COc1ccc(C2=NN(C(=O)COc3ccc(Cl)cc3)C(O)(c3cc(F)c(Cl)cc3Cl)C2)cc1OC` (configuration not stated), the GI50 is 15.7 µM and the total growth inhibition concentration (TGI) stood at 30.3 µM. Regarding `Cc1ccc(C2(N3CCCC3)OC(C)(C)c3cccc4cccc2c34)cc1` (configuration not stated), the TGI stood at 35.7 µM. With `CC1(C)COCN1COC1CCCCC1`, the TGI is > 100 µM. For the compound `CC1(C)NCCC[C@]2(C)[C@H]3C=CC4=C5C[C@](C)(CO)CC[C@]5(C)CC[C@@]4(C)[C@]3(C)CC[C@@H]12`, the GI50 is 4.78 µM and the TGI came out at 16.9 µM. Take `CCN(CC)c1ccc2c(c1)Oc1ccc(N(C(C)=O)c3ccccc3)cc1C21OC(=O)c2ccccc21` (configuration not stated): the concentration for total growth inhibition (TGI) was > 100 µM. Same read-out and setting: next, `O=C1C(=Cc2ccco2)C(=O)C2CCCCC12` (configuration not stated): > 100 µM; `Fc1ccc(C2NC(=S)NC3=C2CCOc2c3ccc3ccccc23)cc1` (configuration not stated): > 100 µM. As to `N#Cc1ccc(OC(=O)c2ccc(N=C(N)N)cc2)cc1`, the TGI was > 100 µM. Take `N#CC1=C(N)OC2=C(COc3ccc(F)cc32)C1c1ccc(Cl)cc1` (configuration not stated): the GI50 is 49.5 µM and the TGI was > 100 µM. Take `CC(=O)N1CC(C)(C)c2c1cc(C)c(O)c2C`: the TGI was > 100 µM. With `O=C1c2n[nH]nc2C(=O)c2n[nH]nc21`, the TGI was > 100 µM. Still for that read-out and setting: under `COC(=O)c1c(O)ccc2c1c1c(n2Cc2ccc(OC)cc2)C(=O)c2ccccc2C1=O` stands > 100 µM; under `COc1ccccc1C1=C2C(=O)N(C)C(c3ccccc3OC)=C2C(=O)N1C`, > 100 µM. Still for that read-out and setting: under `C=CC[C@H]1C[C@@]2(C)OC[C@H](C(C)C)N2C1=O` stands > 100 µM; under `Cc1c(NC(=S)N/N=C\C(=N/NC(=S)Nc2c(C)n(C)n(-c3ccccc3)c2=O)c2ccccc2)c(=O)n(-c2ccccc2)n1C`, > 100 µM.

Regarding `O=C(Nc1ccccc1)c1cc(S(=O)(=O)Nc2n[nH]c(=O)[nH]2)c(SSc2cc(Cl)c(C(=O)Nc3ccccc3)cc2S(=O)(=O)Nc2n[nH]c(=O)[nH]2)cc1Cl`, the TGI was > 100 µM. In the case of `Cc1cc(C)c(O)c(CNCCCCCCNCc2cc(C)cc(C)c2O)c1`, the GI50 was 1.59 µM and the TGI is 3.83 µM. `COc1cc(Cl)cc(-c2nn(C(=O)NCCN3CCN(C)CC3)cc2-c2ccncc2)c1`: the GI50 is 41.7 µM and the TGI is > 100 µM. In the case of `CC(C)=CC(=O)Oc1ccc([N+](=O)[O-])cc1`, the TGI is > 100 µM. For the compound `Cc1ccc2ccc(=O)oc2c1`, the TGI is > 100 µM. `CCOC(=O)c1[nH]cnc1/N=N/N(C)N`: the TGI is > 100 µM. On the same count and under the same terms, under `CN(C)CCCN=C(N)N` stands > 100 µM; under `CN(C)CC(/C(Cc1ccccc1)=N\NC(=O)c1ccncc1)c1ccccc1` (configuration not stated), > 100 µM; under `COc1cc2c(c(OC)c1OC)-c1ccc(SC)c(=O)cc1[C@@H](NC(=O)c1ccc(OC(C)=O)cc1)CC2`, 81.8 µM. Still for that read-out and setting: next, `Cc1ccccc1CN1CC2=C(CCN(Cc3ccccc3)C2=O)N2CCN=C12`: > 100 µM. Turning to `N=C1c2nc3n(c2C(=O)c2nc4n(c21)CCCC4)CCCC3`, the GI50 was 2.31 µM and the TGI was 5.31 µM. As to `COc1cc2c(cc1OC)C1=Cc3ccc(OC)c(OC)c3C(C#N)N1CC2` (configuration not stated), the TGI was > 100 µM. Still for that read-out and setting: under `CSc1nc2c(c(=O)n1C)N=C(c1ccc(Cl)cc1)CC(c1ccccc1)N2` (configuration not stated) stands > 100 µM.

`CC(=O)Nc1nc(SCc2ccccc2)c2ncn(C(C)=O)c2n1`: the GI50 was > 100 µM and the TGI is > 100 µM. `C[C@]12CC[C@H](O)CC1=CC[C@@H]1C2CC[C@]2(C)c3nn(-c4ccc(F)cc4)nc3CC12` (some centres not stated): the TGI was > 100 µM.

As for `Clc1ccc(-n2nnc(C3=NCCCN3)c2-c2ccccc2)cc1`, the TGI was > 100 µM. Still for that read-out and setting: under `CC(C)=NNc1cnnc2ccc([N+](=O)[O-])cc12` stands > 100 µM. In the case of `COc1ccc(/C=C\c2cc(OC)c(OC)c(OC)c2)cc1OC(=O)C(N)CCC(=O)O` (configuration not stated), the GI50 is 0.00327 µM. As to `Cc1ncc([N+](=O)[O-])n1CCNS(=O)(=O)CCCn1ccnc1[N+](=O)[O-]`, the TGI is > 100 µM. On to `CCCCCCCCCCC(C)CCCCCCC(=O)OCC(COP(=O)([O-])OCC[N+](C)(C)C)OC(=O)CCCCCCC(C)CCCCCCCCCC` (configuration not stated), for which the TGI is > 100 µM. Regarding `COc1ccc2c(c1)c(=O)c1c(NCCCN(C)CCCNc3ccc4c(=O)n(CCN(C)C)c(=O)n5c6ccc(OC)cc6c(=O)c3c45)ccc3c(=O)n(CCN(C)C)c(=O)n2c31`, the TGI worked out at 2.83 µM. That is a single-digit micromolar value. The same measure, in the same setting: under `NNC(=O)Cc1cccnc1` stands > 100 µM. Still for that read-out and setting: next, `FC(F)(F)c1cccc(COCCN2CCN(Cc3cccc(C(F)(F)F)c3)CC2)c1`: 32.7 µM.

With `COC(=O)COc1ccc(/C=C2\N=C(c3ccccc3)N(c3cc(C(F)(F)F)ccc3Cl)C2=O)cc1`, the GI50 is > 100 µM and the TGI is > 100 µM.

On to `CC1=NC2(CCCCC2)N(Cl)C(=O)C1SC#N` (configuration not stated), for which the TGI came to 32.7 µM. Consider `COC(=O)C1=COC(C)C2C[n+]3ccc4c([nH]c5ccccc54)c3CC12` (configuration not stated), for which the TGI was > 100 µM.

Take `CC([C@H]1CCC2C3CCC4C[C@@H](NC=O)CC[C@]4(C)C3CC[C@@]21C)N(C)C` (some centres not stated): the GI50 was 2.74 µM and the TGI amounted to 8.83 µM.

For `COc1cc(C(=O)O[C@H](C(=O)NCCNC(=O)[C@@H](OC(=O)c2cc(OC)cc3c(C)cccc23)[C@]2(C)CO2)[C@]2(C)CO2)c2cccc(C)c2c1`, the GI50 was 0.707 µM and the TGI came to 1.97 µM.

As to `N#CCc1ccc(C(C#N)/C(CCCC(=O)Nc2cccc([N+](=O)[O-])c2)=N\NC(=O)NN)cc1` (configuration not stated), the TGI was > 100 µM.

The values above are taken from PubChem BioAssay (NCI).
